# Some of the results follow.
# B1: Epa10 (protein)
# chain: MNEKIFRYLTLLFLFELARSLPVEDKLNIKKVFEKRAVDFTPFAHYPRPEGCSSPPNSVSVGLHMNLYNYPYLYVKPSTKGMFTNDTNSDADGETDGDSAGGIEGRAGQCWNPEYQDPNFPRFGYKQYGEFGASDNVNGDISWDHNEFTEGCKPVLAALPPGYNYPDEITFSNFTMVLSGYFKPKTSGVYKFELKADDFILFNFGAKNAFECCNREESIDNFGPYVAYAMWPNQADQELEVYLFEDSYYPLRLFYNNRDYHSKFKIGFYPPGQTTITFDFDGYLFMLDDTGNECRDSIRYRTVCDDKVVDDTTYSTRYSTSMVPGGGSDVITIYYIRMKCEEEDCLGQWDPINNVCYSPDDCADDGGYWNGQMCDQSCKLEGGIVNPDTGDCDKSCIESGGFLDENGNCDTTCRDDGGMLVEGQCDYQCKEAGGILVGDHCDTTCVDSGGKLNEDGTCDHSCRDQGGQLDENGECDTSCKDSGGMLIEGECDTSCKDEGGQLDDNNECINHCKDQGGIIDENGNCDTSCKDSGGKLDESGACDTSCRDDGGIIDENGNCNTTCRDDGGIIVGDHCDTSCRDAGGILIEDHCDTTCRDSGGKLNEDGTCDHSCRDQGGQLDENGKCDYSCKNGGGKLDEDGNCDMSCKENGGKLDENGDCDLSCKEDGGKLDGNGDCDYSCKEEGGVIDESGNCNTTCKDSGGQIIDGECNYGCIEVGGVVIDGECDTSCIDSGGILDGDGNCDRSCIESGGVLEDGACNTTCRDSGGQLNVDGTCDTSCRDDGGMLVEGQCDYQCKEAGGILEDGECVFPPTSSSTSETSSTTDQSSLQSDDSSMESSSTPMDSSTIESSSSEIITSESESESVPIASSSSEVMTSESESESIPILTSSSEIPIASSSSEIPVASSSSEIIIPESESESVPVASSSSEIPIASSSSEIPVASSSSEIPVASSSSEIIIPESESESIPIESTSSEAVSSRSESDSSYPTPTPTTTTITTWPNPIQPTTSNSSPIVSSSTETPGIAESSSRISDLESSRRTSILGDDRTRTRTTITSTITEDGQIITITTTVTGFVPEPTGETEGNGSDDENPENPIENNTDENEFLDPEFTDDIPDDPAGPEDNGNGPVNPEQGNDNDPVNLEDSGNNGAVNPEQAPVNDEDNGGNDPVNPEQDNNNGPANPGQDSTNGSGNSDQIDNNPPTPEENAGDGNSNGNDPADPSRRTSILGDERTRASPGGTSQPTGANGNVNGNSPGANVNGGGTGNSNNNNNNNNNNNNGNAPNGGDGSNGDANQGPSRRTSLLGDERTRAGQAAPTGGSSPDNGIAGDTSNNGGAIVSQQVDDGGAGSPRRTSILGDVRSRTTLNGEVLNFEGSGVRRAVAGNLALPLMMVGLVFNL
# Experiments:
# Assay in all cases: glycan array binding signal (z-score within array); higher = stronger binding
# Details in all cases: glycan notation: IUPAC condensed, linker removed
# Gal(b1-2)Gal = target: Gal(b1-2)Gal
# In short: (§1)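 The binding signal is a Z-score computed within each array and averaged over linkers. Arrays of the same protein sequence at different concentrations or buffers were also averaged together. Data originate from 3228 arrays in the Consortium for Functional Glycomics database, kept only where the protein sequence was available.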
# Gal(b1-3)Gal = target: Gal(b1-3)Gal
# In short: as §1
# Gal(b1-3)Gal(b1-4)GlcNAc = target: Gal(b1-3)Gal(b1-4)GlcNAc
# In short: as §1
# Gal(b1-3)GalNAc = target: Gal(b1-3)GalNAc
# In short: as §1
# [1] = target: Gal(b1-3)GalNAc(a1-3)[Fuc(a1-2)]Gal(b1-4)Glc
# In short: as §1
# [2] = target: Gal(b1-3)GalNAc(a1-3)[Fuc(a1-2)]Gal(b1-4)GlcNAc
# In short: as §1
# Gal(b1-3)GalNAc(b1-3)Gal = target: Gal(b1-3)GalNAc(b1-3)Gal
# In short: as §1
# [3] = target: Gal(b1-3)GalNAc(b1-3)Gal(a1-4)Gal(b1-4)Glc
# In short: as §1
# [4] = target: Gal(b1-3)GalNAc(b1-4)Gal(b1-4)Glc
# In short: as §1
# [5] = target: Gal(b1-3)GalNAc(b1-4)[Neu5Ac(a2-3)]Gal(b1-4)Glc
# In short: as §1
# Gal(b1-3)GlcNAc = target: Gal(b1-3)GlcNAc
# In short: as §1
# [6] = target: Gal(b1-3)GlcNAc(a1-3)Gal(b1-4)GlcNAc
# In short: as §1
# [7] = target: Gal(b1-3)GlcNAc(a1-6)Gal(b1-4)GlcNAc
# In short: as §1
# Gal(b1-3)GlcNAc(b1-2)Man = target: Gal(b1-3)GlcNAc(b1-2)Man
# In short: as §1
# [8] = target: Gal(b1-3)GlcNAc(b1-2)Man(a1-3)[Gal(b1-3)GlcNAc(b1-2)Man(a1-6)]Man(b1-4)GlcNAc(b1-4)GlcNAc
# In short: as §1
# [9] = target: Gal(b1-3)GlcNAc(b1-2)Man(a1-3)[Gal(b1-3)GlcNAc(b1-2)Man(a1-6)]Man(b1-4)GlcNAc(b1-4)[Fuc(a1-6)]GlcNAc
# In short: as §1
# [10] = target: Gal(b1-3)GlcNAc(b1-2)Man(a1-3)[GlcNAc(b1-4)][Gal(b1-3)GlcNAc(b1-2)Man(a1-6)]Man(b1-4)GlcNAc(b1-4)GlcNAc
# In short: as §1
# [11] = target: Gal(b1-3)GlcNAc(b1-2)[Gal(b1-3)GlcNAc(b1-6)]Man(a1-6)[Gal(b1-3)GlcNAc(b1-2)Man(a1-3)]Man(b1-4)GlcNAc(b1-4)GlcNAc
# In short: as §1
# [12] = target: Gal(b1-3)GlcNAc(b1-3)Gal(b1-3)GlcNAc
# In short: as §1
# [13] = target: Gal(b1-3)GlcNAc(b1-3)Gal(b1-4)Glc
# In short: as §1
# [14] = target: Gal(b1-3)GlcNAc(b1-3)Gal(b1-4)GlcNAc
# In short: as §1
# [15] = target: Gal(b1-3)GlcNAc(b1-3)Gal(b1-4)GlcNAc(b1-2)Man(a1-3)[Gal(b1-3)GlcNAc(b1-3)Gal(b1-4)GlcNAc(b1-2)Man(a1-6)]Man(b1-4)GlcNAc(b1-4)GlcNAc
# In short: as §1
# [16] = target: Gal(b1-3)GlcNAc(b1-3)Gal(b1-4)GlcNAc(b1-2)[Gal(b1-3)GlcNAc(b1-3)Gal(b1-4)GlcNAc(b1-6)]Man(a1-6)[Gal(b1-3)GlcNAc(b1-3)Gal(b1-4)GlcNAc(b1-2)Man(a1-3)]Man(b1-4)GlcNAc(b1-4)[Fuc(a1-6)]GlcNAc
# In short: as §1
# [17] = target: Gal(b1-3)GlcNAc(b1-3)Gal(b1-4)GlcNAc(b1-3)Gal(b1-4)GlcNAc(b1-2)[Gal(b1-3)GlcNAc(b1-3)Gal(b1-4)GlcNAc(b1-3)Gal(b1-4)GlcNAc(b1-6)]Man(a1-6)[Gal(b1-3)GlcNAc(b1-3)Gal(b1-4)GlcNAc(b1-3)Gal(b1-4)GlcNAc(b1-2)Man(a1-3)]Man(b1-4)GlcNAc(b1-4)[Fuc(a1-6)]GlcNAc
# In short: as §1
# [18] = target: Gal(b1-3)GlcNAc(b1-3)Gal(b1-4)GlcNAc(b1-6)[Gal(b1-3)GlcNAc(b1-3)]Gal(b1-4)Glc
# In short: as §1
# [19] = target: Gal(b1-3)GlcNAc(b1-3)Gal(b1-4)[Fuc(a1-3)]GlcNAc
# In short: as §1
# [20] = target: Gal(b1-3)GlcNAc(b1-3)Gal(b1-4)[Fuc(a1-3)]GlcNAc(b1-6)[Gal(b1-3)GlcNAc(b1-3)]Gal(b1-4)Glc
# In short: as §1
# [21] = target: Gal(b1-3)GlcNAc(b1-3)GalNAc
# In short: as §1
# [22] = target: Gal(b1-3)GlcNAc(b1-6)Gal(b1-4)GlcNAc
# In short: as §1
# [23] = target: Gal(b1-3)GlcNAc(b1-6)GalNAc
# In short: as §1
# [24] = target: Gal(b1-3)GlcNAc(b1-6)[Gal(b1-3)]GalNAc
# In short: as §1
# Gal(b1-3)GlcNAc6S = target: Gal(b1-3)GlcNAc6S
# In short: as §1
# [25] = target: Gal(b1-3)[Fuc(a1-4)]GlcNAc
# In short: as §1
# [26] = target: Gal(b1-3)[Fuc(a1-4)]GlcNAc(b1-2)Man
# In short: as §1
# [27] = target: Gal(b1-3)[Fuc(a1-4)]GlcNAc(b1-2)Man(a1-3)[Gal(b1-3)[Fuc(a1-4)]GlcNAc(b1-2)Man(a1-6)]Man(b1-4)GlcNAc(b1-4)[Fuc(a1-6)]GlcNAc
# In short: as §1
# [28] = target: Gal(b1-3)[Fuc(a1-4)]GlcNAc(b1-3)Gal(b1-3)[Fuc(a1-4)]GlcNAc
# In short: as §1
# [29] = target: Gal(b1-3)[Fuc(a1-4)]GlcNAc(b1-3)Gal(b1-4)[Fuc(a1-3)]GlcNAc
# In short: as §1
# [30] = target: Gal(b1-3)[Fuc(a1-4)]GlcNAc(b1-6)GalNAc
# In short: as §1
# [31] = target: Gal(b1-3)[GlcNAc(b1-6)]GalNAc
# In short: as §1
# [32] = target: Gal(b1-3)[Neu5Ac(a2-6)]GalNAc
# In short: as §1
# [33] = target: Gal(b1-3)[Neu5Ac(a2-6)]GlcNAc(b1-4)Gal(b1-4)Glc
# In short: as §1
# [34] = target: Gal(b1-3)[Neu5Ac(b2-6)]GalNAc
# In short: as §1
# Gal(b1-4)Gal = target: Gal(b1-4)Gal
# In short: as §1
# [35] = target: Gal(b1-4)GalNAc(a1-3)[Fuc(a1-2)]Gal(b1-4)GlcNAc
# In short: as §1
# [36] = target: Gal(b1-4)GalNAc(b1-3)[Fuc(a1-2)]Gal(b1-4)GlcNAc
# In short: as §1
binder,measurement,setting,value
B1,glycan array binding signal (z-score),Gal(b1-2)Gal,0.325
same,glycan array binding signal (z-score),Gal(b1-3)Gal,1.36
same,glycan array binding signal (z-score),Gal(b1-3)Gal(b1-4)GlcNAc,4.92
same,glycan array binding signal (z-score),Gal(b1-3)GalNAc,3.84
same,glycan array binding signal (z-score),[1],3.03
same,glycan array binding signal (z-score),[2],3.87
same,glycan array binding signal (z-score),Gal(b1-3)GalNAc(b1-3)Gal,6.03
same,glycan array binding signal (z-score),[3],4.11
same,glycan array binding signal (z-score),[4],17
same,glycan array binding signal (z-score),[5],4.18
same,glycan array binding signal (z-score),Gal(b1-3)GlcNAc,-0.17
same,glycan array binding signal (z-score),[6],-0.278
same,glycan array binding signal (z-score),[7],-0.276
same,glycan array binding signal (z-score),Gal(b1-3)GlcNAc(b1-2)Man,-0.19
same,glycan array binding signal (z-score),[8],-0.043
same,glycan array binding signal (z-score),[9],-0.126
same,glycan array binding signal (z-score),[10],-0.112
same,glycan array binding signal (z-score),[11],-0.229
same,glycan array binding signal (z-score),[12],-0.172
same,glycan array binding signal (z-score),[13],-0.177
same,glycan array binding signal (z-score),[14],-0.228
same,glycan array binding signal (z-score),[15],-0.134
same,glycan array binding signal (z-score),[16],0.014
same,glycan array binding signal (z-score),[17],0.117
same,glycan array binding signal (z-score),[18],-0.01
same,glycan array binding signal (z-score),[19],-0.085
same,glycan array binding signal (z-score),[20],-0.085
same,glycan array binding signal (z-score),[21],-0.205
same,glycan array binding signal (z-score),[22],-0.051
same,glycan array binding signal (z-score),[23],-0.264
same,glycan array binding signal (z-score),[24],1.13
same,glycan array binding signal (z-score),Gal(b1-3)GlcNAc6S,-0.184
same,glycan array binding signal (z-score),[25],-0.264
same,glycan array binding signal (z-score),[26],-0.084
same,glycan array binding signal (z-score),[27],-0.098
same,glycan array binding signal (z-score),[28],-0.101
same,glycan array binding signal (z-score),[29],-0.254
same,glycan array binding signal (z-score),[30],-0.148
same,glycan array binding signal (z-score),[31],1.89
same,glycan array binding signal (z-score),[32],3.73
same,glycan array binding signal (z-score),[33],-0.23
same,glycan array binding signal (z-score),[34],0.847
same,glycan array binding signal (z-score),Gal(b1-4)Gal,-0.235
same,glycan array binding signal (z-score),[35],-0.313
same,glycan array binding signal (z-score),[36],-0.215
